This is one part of the list. At the low end of the ranking the order means little. The protein was read in a cell extract, so binding may be indirect.
Molecular target: T1, HNF4alpha2 (COS-7 nuclear extract) (UniProt P41235)
T1 sequence: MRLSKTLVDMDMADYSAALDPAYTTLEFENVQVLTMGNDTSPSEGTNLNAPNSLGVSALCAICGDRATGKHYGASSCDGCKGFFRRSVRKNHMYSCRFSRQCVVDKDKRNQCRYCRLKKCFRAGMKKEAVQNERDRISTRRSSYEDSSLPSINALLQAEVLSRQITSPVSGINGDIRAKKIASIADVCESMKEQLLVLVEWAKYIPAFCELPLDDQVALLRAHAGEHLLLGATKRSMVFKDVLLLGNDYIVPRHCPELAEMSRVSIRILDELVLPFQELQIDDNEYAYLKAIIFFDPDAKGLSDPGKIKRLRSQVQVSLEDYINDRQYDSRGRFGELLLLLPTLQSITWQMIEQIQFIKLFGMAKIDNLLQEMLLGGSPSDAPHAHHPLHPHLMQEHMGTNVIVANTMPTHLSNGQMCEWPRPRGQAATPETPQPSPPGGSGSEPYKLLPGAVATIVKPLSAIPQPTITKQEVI
Test: protein-binding microarray
Details: COS-7 nuclear extract on double-stranded Agilent 4x180k PBM; binding buffer, salt, pH and temperature not given; high values mean tight binding; double strand, one strand shown; sequences stand for … in …GCCTAGGGAGATTAGAGTATCGGTCGA

Sequence | binding signal (log2 normalized intensity)
CCTTCATGTTTTCACCAAGAGGGAAAAGAT | 0.499
CAGGGAATGAGAATGGCCAGAGTTCCTGTG | -1.06
AACAGACAAATGAAAGAGCTCAAATGACAG | -1.04
GGGCCCTCTTCCAGCTGAGACAAGGTCCAG | 0.827
ATGATCTTGCTCTCTTGTGCTCATGACAAA | 1.23
AGTCTTAACCTCCTCTGTCACGATTCTTTT | 1.52
ATCTGACCTTTGGGACATTCCCCAGGCTGC | 2.91
CTCGGGTGTTCACAGGTGACCTCTGGCCAC | 4.24
TCCTGATCTTTGACCTGGAGCATGACCCTT | 4.86
GGGAGATAAGGCCCGGCTGATGGGACCAAA | -1.17
CACAAAGCTTGGGTTCACATTCCAGCTCTG | -0.321
TCTTCGAAGACACAAAGCTTGGGTTCACAT | 2.05
GAAAGCAAGGGCCAGATCAAAGGCTTCTAG | -1.12
TCCGGGCGATCCGGGCTCCGGGCGCCGCGC | -1.05
ACTTATCTCAGCCTGGCTAAAACCCTGGCC | -1.17
CCCAGGTCACCCACAACCTACCCTTTGCCC | 3.99
GGCATTTCACAGAGCAAGGGTCCAGATTAG | 2.46
ACACACACACACACAGCTTGGAGCTCCTTG | -1.1
GTCGCTTGCCAGTATGCCACTGGTTAGTTC | 0.519
GCTGCCAAACTGCCCAGCAGAAAAGCTGTA | -1.04
GAAATGGGACCCAACTTTTGCTCTCTGGGA | -1.12
TTGACCTTCAGCATCTTCAACTGTGTGAGC | 2.61
TTCCCTAAGATTCTGGTCAAAGGTCAATGA | 7.36
GACCTAGGTGAGCAGGCAGAGGTCAATGTC | 2.96

Sequence | binding signal (log2 normalized intensity)
ACAGTTTTGTGTGTTTAATGTTTTCATTCT | 1.93
TGGGACCAAAGGTGAAGGGGTCACCTCGCT | 2.83
TTGCACCTGGGCTGGAAAGGCCACCACAAA | -1.13
TGCTGCCGCATTTTCCTTTGTTGGTTTTGC | 1.1
ACCCTGTTTTGTAAACTCCCTTTGATGCGG | 0.875
TGATGCATCAGACCCCTGAGTTTCGCAGCT | 2.16
GGTGAGCTTTTATCTTAAGTGAGGTGGAAA | 1.3
TGACCCCAGGGGAAACTCCATTTCCTTCTA | -0.479
GTCTTAGTATTAACGGTGAGGGAGGAGACT | -1.19
AAACCAAACTGCAGCTGCTGCACTGATAAG | -1.18
GAATCAATGCCTGATTCCAAAGTCCACTTT | 6.91
AGAGGCAAGGAAAGATAAATAGTGACAAAT | -1.08
TGACCCCTAGCACTTCCCGAGTGAGGCAAT | 1.62
CTCTCATTGGAATGAGCCTCCTGAAGATCC | 0.558
AAAAGGGGACCGGCCTTTCCCGGCTGCCTA | -1.16
AGACTTCAAAGCATTCCACATTCTCCACTG | -1.27
GACCTTTATATGTCCACCTTATCTAATGCC | 1.15
AGCAATCTTGAGGTTTCCACTGATAAAGTT | 1.11
TATTTAGACTCAGCATGTCTTCTGACCTTT | 6.51
GGAGAGCTGGACTTTCATCTGAGTCTCAGC | 1.85
AAAGGCGTTTGCTCCCATCCCCCCAAAGGC | 4.99
AGAACTATCAAACATTTTTGCAACATGAGG | 0.408
CCCTCTCCTTTGGTGCAAATACCATCCCCA | 3.45

— publication PMC10726135
